Columns and labels:
huCD3-His [1] = biological target: T1, huCD3-His (human); assay: SPR, huCD3-His immobilised, bispecific as analyte 0.625-25 nM, pH 6.0, 1:1 fit
T1 chain: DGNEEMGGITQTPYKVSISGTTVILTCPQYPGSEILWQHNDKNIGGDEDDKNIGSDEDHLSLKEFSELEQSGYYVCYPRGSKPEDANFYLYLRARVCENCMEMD

[2] = biological target: recombinant human CD3 (ELISA capture) (human); assay: pH sandwich ELISA, human CD3 coated, detection with human HER2-mouse Fc and anti-mouse HRP, pH 6.0
[3] = biological target: recombinant human CD3 (ELISA capture) (human); assay: pH sandwich ELISA, human CD3 coated, detection with human HER2-mouse Fc; ratio of EC50 at pH 7.4 to pH 6.0
huCD3-His [4] = biological target: T1, huCD3-His; assay: SPR, huCD3-His immobilised, bispecific as analyte, 1:1 model, pH 7.4
[5] = biological target: recombinant human CD3 (ELISA capture) (human); assay: pH sandwich ELISA, human CD3 coated, detection with cyno HER2-mouse Fc, pH 6.0
huCD3-His [6] = biological target: T1, huCD3-His; assay: SPR, huCD3-His immobilised, bispecific as analyte, 1:1 model, pH 6.5
[7] = biological target: recombinant human CD3 (ELISA capture) (human); assay: pH sandwich ELISA, human CD3 coated, detection with cyno HER2-mouse Fc, pH 7.4
huCD3-His [8] = biological target: T1, huCD3-His; assay: SPR, huCD3-His immobilised, bispecific as analyte 0.625-25 nM, pH 7.4, 1:1 fit
huCD3-His [9] = biological target: T1, huCD3-His; assay: SPR, huCD3-His immobilised, bispecific as analyte 0.625-25 nM, pH 6.5, 1:1 fit
[10] = biological target: recombinant human CD3 (ELISA capture) (human); assay: pH sandwich ELISA, human CD3 coated, detection with human HER2-mouse Fc and anti-mouse HRP, pH 7.4
[11] = biological target: recombinant human CD3 (ELISA capture) (human); assay: pH sandwich ELISA, human CD3 coated, detection with cyno HER2-mouse Fc; ratio of EC50 at pH 7.4 to pH 6.0
huCD3-His [12] = biological target: T1, huCD3-His; assay: SPR, huCD3-His immobilised, bispecific as analyte, 1:1 model, pH 6.0
huHER2-His [13] = biological target: T2, huHER2-His (human); assay: SPR, huHER2-His immobilised, bispecific as analyte, 1:1 model, pH 6.0
T2 construct: also called Human HER2-His; humHer2

huHER2-His [14] = biological target: T2, huHER2-His; assay: SPR, huHER2-His immobilised, bispecific as analyte, 1:1 model, pH 6.5
huHER2-His [15] = biological target: T2, huHER2-His; assay: SPR, huHER2-His immobilised, bispecific as analyte, 1:1 model, pH 7.4
[16] = biological target: recombinant human CD3 (ELISA capture) (human); assay: pH sandwich ELISA, human CD3 coated, detection with cyno HER2-mouse Fc, pH 6.0; saturation not reached, value estimated
huCD3-His [17] = biological target: T1, huCD3-His; assay: SPR, huCD3-His immobilised, bispecific as analyte 0.625-25 nM, pH 6.5, 1:1 fit
cynoHER2-His [18] = biological target: cynoHER2-His (cyno); assay: SPR, cynoHER2-His immobilised, bispecific as analyte, 1:1 model, pH 6.5
[19] = biological target: recombinant human CD3 (ELISA capture) (human); assay: pH sandwich ELISA, human CD3 coated, detection with human HER2-mouse Fc and anti-mouse HRP, pH 7.4; saturation not reached, value estimated
huCD3-His [20] = biological target: T1, huCD3-His; assay: SPR, huCD3-His immobilised, bispecific as analyte 0.625-25 nM, pH 7.4, 1:1 fit
cynoHER2-His [21] = biological target: cynoHER2-His (cyno); assay: SPR, cynoHer2-His immobilised, bispecific as analyte 0.625-25 nM, pH 6.5, 1:1 fit; low response, about 12 RU at 25 nM
huHER2-His [22] = biological target: T2, huHER2-His; assay: SPR, huHer2-His immobilised, bispecific as analyte 0.625-25 nM, pH 7.4, 1:1 fit; low response, about 17 RU at 25 nM
[23] = biological target: recombinant human CD3 (ELISA capture) (human); assay: pH sandwich ELISA, human CD3 coated, detection with cyno HER2-mouse Fc, pH 7.4; saturation not reached, value estimated
huCD3-His [24] = biological target: T1, huCD3-His; assay: SPR, huCD3-His immobilised, bispecific as analyte 0.625-25 nM, pH 6.0, 1:1 fit
huHER2-His [25] = biological target: T2, huHER2-His; assay: SPR, huHer2-His immobilised, bispecific as analyte 0.625-25 nM, pH 6.0, 1:1 fit
huCD3-His [26] = biological target: T1, huCD3-His; assay: SPR, huCD3-His immobilised, bispecific as analyte 0.625-25 nM, pH 6.0, 1:1 fit
huCD3-His [27] = biological target: T1, huCD3-His; assay: SPR, huCD3-His immobilised, bispecific as analyte 0.625-25 nM, pH 6.5, 1:1 fit
huCD3-His [28] = biological target: T1, huCD3-His; assay: SPR, huCD3-His immobilised, bispecific as analyte 0.625-25 nM, pH 7.4, 1:1 fit

B1: WT HER2 × WT CD3 butterfly bispecific antibody (bispecific antibody, human IgG1, kappa)
heavy: [about 450 residues with a human IgG1 Fc not printed]
light: [about 200 residues not printed]SRSGGGGEVQLVESGGGLVQPGGSLRLSCAASGFTFNTYAMNWVRQAPGKGLEWVARIRSKYNNYATYYADSVKDRFTISRDDSKNSLYLQMNSLKTEDTAVYYCVRHGNFGNSYVSWFAYWGQGTLVTVSSGGSGGSGGSGGSGGQAVVTQEPSLTVSPGGTVTLTCRSSTGAVTTSNYANWVQQKPGQAPRGLIGGTNKRAPWTPARFSGSLLGGKAALTITGAQAEDEADYYCALWYSNLWVFGGGTKLTVLSR
notes: also called WT Her × WT CD3
Kd (huCD3-His [1]): 1.23 nM
koff (huCD3-His [1]): 0.000129 s⁻¹
kon (huCD3-His [1]): 105000 M⁻¹ s⁻¹
EC50 [2]: 0.0777 µg/mL
EC50 ratio pH 7.4/6.0 [3]: 0.8
koff (huCD3-His [4]): 0.000321 s⁻¹
kon (huCD3-His [4]): 5250 M⁻¹ s⁻¹
EC50 [5]: 0.083 µg/mL
Kd (huCD3-His [6]): 3.71 nM
koff (huCD3-His [6]): 0.000296 s⁻¹
kon (huCD3-His [6]): 79900 M⁻¹ s⁻¹
EC50 [7]: 0.0812 µg/mL
Kd (huCD3-His [8]): 61.1 nM
koff (huCD3-His [8]): 0.000321 s⁻¹
kon (huCD3-His [8]): 5250 M⁻¹ s⁻¹
Kd (huCD3-His [9]): 3.71 nM
koff (huCD3-His [9]): 0.000296 s⁻¹
kon (huCD3-His [9]): 79900 M⁻¹ s⁻¹
EC50 [10]: 0.0621 µg/mL
EC50 ratio pH 7.4/6.0 [11]: 0.98
Kd (huCD3-His [12]): 1.23 nM
koff (huCD3-His [12]): 0.000129 s⁻¹
kon (huCD3-His [12]): 105000 M⁻¹ s⁻¹

B2: CAB HER2-24-06 × CAB CD3-BF19 butterfly bispecific antibody (bispecific antibody, human IgG1, kappa)
heavy: [about 450 residues with a human IgG1 Fc not printed]
light: [about 200 residues not printed]SRSGGGGEVQLVESGGGLVQPGGSLRLSCAASGFTFNTYAMNWVRQAPGKGLEWVARIRSKYNNYATYYADSVKDRFTISRDDSKNSLYLQMNSLKTEDTAVYYCVRHGNFPNSKVSWFQYWGQGTLVTVSSGGSGGSGGSGGSGGQAVVTQEPSLTVSPGGTVTLTCRSSTGAVTTSNYDNWVQQKPGQAPRGLIGGTNKRAPWTPARFSGSLLGGKAALTITGAQAEDEADYYCALWYSNLWVFGGGTKLTVLSR
notes: also called BA-150-24-06-BF19; CAB Her2 × CAB CD3-BF19
Kd (huHER2-His [13]): 4.8 nM
koff (huHER2-His [13]): 0.0016 s⁻¹
kon (huHER2-His [13]): 333000 M⁻¹ s⁻¹
Kd (huHER2-His [14]): 4.12 nM
koff (huHER2-His [14]): 0.00115 s⁻¹
kon (huHER2-His [14]): 279000 M⁻¹ s⁻¹
Kd (huHER2-His [15]): 18.2 nM
koff (huHER2-His [15]): 0.00118 s⁻¹
kon (huHER2-His [15]): 65000 M⁻¹ s⁻¹
EC50 [2]: 0.112 µg/mL
EC50 ratio pH 7.4/6.0 [3]: 17.1
EC50 [16]: ~0.654 µg/mL
Kd (huCD3-His [4]): 5.57 nM
koff (huCD3-His [4]): 0.00108 s⁻¹
kon (huCD3-His [4]): 193000 M⁻¹ s⁻¹
Kd (huCD3-His [17]): 1.96 nM
koff (huCD3-His [17]): 0.00054 s⁻¹
kon (huCD3-His [17]): 276000 M⁻¹ s⁻¹
Kd (huCD3-His [6]): 1.96 nM
koff (huCD3-His [6]): 0.000541 s⁻¹
kon (huCD3-His [6]): 276000 M⁻¹ s⁻¹
kon (cynoHER2-His [18]): 167000 M⁻¹ s⁻¹
EC50 [19]: ~1.93 µg/mL
Kd (huCD3-His [20]): 5.57 nM
koff (huCD3-His [20]): 0.00108 s⁻¹
kon (huCD3-His [20]): 193000 M⁻¹ s⁻¹
Kd (cynoHER2-His [21]): 18.7 nM
koff (cynoHER2-His [21]): 0.00312 s⁻¹
kon (cynoHER2-His [21]): 166000 M⁻¹ s⁻¹
Kd (huHER2-His [22]): 18.1 nM
koff (huHER2-His [22]): 0.00118 s⁻¹
kon (huHER2-His [22]): 65000 M⁻¹ s⁻¹
EC50 [23]: ~0.802 µg/mL
EC50 ratio pH 7.4/6.0 [11]: 1.23
Kd (huCD3-His [12]): 1.88 nM
koff (huCD3-His [12]): 0.00095 s⁻¹
kon (huCD3-His [12]): 506000 M⁻¹ s⁻¹
Kd (huCD3-His [24]): 1.88 nM
koff (huCD3-His [24]): 0.00095 s⁻¹
kon (huCD3-His [24]): 506000 M⁻¹ s⁻¹
Kd (huHER2-His [25]): 4.8 nM
koff (huHER2-His [25]): 0.0016 s⁻¹
kon (huHER2-His [25]): 333000 M⁻¹ s⁻¹

B3: WT HER2 × CAB CD3-BF45 butterfly bispecific antibody (bispecific antibody, human IgG1, kappa)
heavy: [about 450 residues with a human IgG1 Fc not printed]
light: [about 200 residues not printed]SRSGGGGEVQLVESGGGLVQPGGSLRLSCAASGFTFNTYAMNWVRQAPGKGLEWVARIRSKYNNYATYYADSVKDRFTISRDDSKNSLYLQMNSLKTEDTAVYYCVRHSNFGNSKVSWFAYWGQGTLVTVSSGGSGGSGGSGGSGGQAVVTQEPSLTVSPGGTVTLTCRSSAGAVTTSNYDNWVQQKPGQAPRGLIGGTNKRAPWTPARFSGSLLGGKAALTITGAQAEDEADYYCALWYSNLWVFGGGTKLTVLSR
EC50 [2]: 0.11 µg/mL
Kd (huCD3-His [26]): 1.79 nM
koff (huCD3-His [26]): 0.000679 s⁻¹
kon (huCD3-His [26]): 380000 M⁻¹ s⁻¹
EC50 ratio pH 7.4/6.0 [3]: 14.8
Kd (huCD3-His [4]): 17.1 nM
koff (huCD3-His [4]): 0.00112 s⁻¹
kon (huCD3-His [4]): 65600 M⁻¹ s⁻¹
EC50 [5]: 0.107 µg/mL
Kd (huCD3-His [6]): 5.71 nM
koff (huCD3-His [6]): 0.000989 s⁻¹
kon (huCD3-His [6]): 173000 M⁻¹ s⁻¹
EC50 [19]: ~1.62 µg/mL
Kd (huCD3-His [27]): 5.71 nM
koff (huCD3-His [27]): 0.000989 s⁻¹
kon (huCD3-His [27]): 173000 M⁻¹ s⁻¹
Kd (huCD3-His [28]): 28.8 nM
koff (huCD3-His [28]): 0.00113 s⁻¹
kon (huCD3-His [28]): 39200 M⁻¹ s⁻¹
EC50 [23]: ~0.807 µg/mL
EC50 ratio pH 7.4/6.0 [11]: 7.55
Kd (huCD3-His [12]): 1.79 nM
koff (huCD3-His [12]): 0.000679 s⁻¹
kon (huCD3-His [12]): 380000 M⁻¹ s⁻¹

Source: US20230109218A1 (BIOATLA, published 2023)
